Reference: PMC12529666
The entries are a selection whose mix differs from that of the whole data set. At the low end of the ranking, values are background and their order means little. Some of the results follow.

Experiments:
[1] = target: AGO2 WT (phosphosite mutant background) S387D + S824A + S828D + S831D + S834A (UniProt Q9UKV8); assay: RNA Bind-n-Seq (nitrocellulose filter binding and sequencing); conditions: constant regions annealed to DNA blockers; guide miR-122 5' phosphate; 30 mM Tris pH 8.0, 100 mM potassium acetate, 2 mM magnesium acetate, 0.5 mM TCEP, 0.005% NP-40, 0.01 mg/ml yeast tRNA; 3 nM AGO2-miR-122, 100 nM RNA library …; high values mean tight binding
[2] = target: AGO2 F182del S387D + S824A + S828D + S831D + S834A + del182-182 (UniProt Q9UKV8); assay: as above; conditions: constant regions annealed to DNA blockers; guide miR-122 5' phosphate; 30 mM Tris pH 8.0, 100 mM potassium acetate, 2 mM magnesium acetate, 0.5 mM TCEP, 0.005% NP-40, 0.01 mg/ml yeast tRNA; 3 nM AGO2-miR-122, 100 nM RNA library …; high values mean tight binding

| Sequence | binding signal (fold enrichment over input) [1] | binding signal (fold enrichment over input) [2] |
| --- | --- | --- |
| GAGUUCUACAGUCCGACGAUCCCAACGUACCUCGCACCUGGAAUUCUCGGGUGCCAA / UGGAGUGUGACAAUGGUGUUUG / GATCGTCGGACTGTAGAACTC / TTGGCACCCGAGAATTCCA | 0.0846 | 0.056 |
| GAGUUCUACAGUCCGACGAUCCCAACACACUCUGCACCUGGAAUUCUCGGGUGCCAA / UGGAGUGUGACAAUGGUGUUUG / GATCGTCGGACTGTAGAACTC / TTGGCACCCGAGAATTCCA | 0.933 | 2.4 |
| GAGUUCUACAGUCCGACGAUCCCAACAUACUUUACACCUGGAAUUCUCGGGUGCCAA / UGGAGUGUGACAAUGGUGUUUG / GATCGTCGGACTGTAGAACTC / TTGGCACCCGAGAATTCCA | 0.121 | 0.0803 |
| GAGUUCUACAGUCCGACGAUCCCAACGCAUCUCGCACCUGGAAUUCUCGGGUGCCAA / UGGAGUGUGACAAUGGUGUUUG / GATCGTCGGACTGTAGAACTC / TTGGCACCCGAGAATTCCA | 0.082 | 0.0373 |
| GAGUUCUACAGUCCGACGAUCCCAACGUACCCCGCACCUGGAAUUCUCGGGUGCCAA / UGGAGUGUGACAAUGGUGUUUG / GATCGTCGGACTGTAGAACTC / TTGGCACCCGAGAATTCCA | 0.0913 | 0.0467 |
| GAGUUCUACAGUCCGACGAUCCCAACAUGCCUUACACCUGGAAUUCUCGGGUGCCAA / UGGAGUGUGACAAUGGUGUUUG / GATCGTCGGACTGTAGAACTC / TTGGCACCCGAGAATTCCA | 0.105 | 0.076 |
| GAGUUCUACAGUCCGACGAUCCCAACGCAUCUUGCACCUGGAAUUCUCGGGUGCCAA / UGGAGUGUGACAAUGGUGUUUG / GATCGTCGGACTGTAGAACTC / TTGGCACCCGAGAATTCCA | 0.0852 | 0.0355 |
